# Data as given in the supplement of paper PMC8728848.
# The list shows a part of the results.
# Key:
# Assay in all cases: glycan array binding signal (z-score within array); higher = stronger binding
# Settings in all cases: glycan notation: IUPAC condensed, linker removed
# [1] = target: Neu5Ac(a2-3)Gal(b1-3)GalNAc(b1-3)Gal(a1-4)Gal(b1-4)Glc
# Method in brief: (§1)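 The Consortium for Functional Glycomics database supplied 3228 glycan arrays, of which those lacking an available protein sequence were dropped. The binding signal, a within-array Z-score, was averaged across arrays of the same protein sequence and across linkers. Negative scores can be read as non-binding.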
# [2] = target: Neu5Ac(a2-3)Gal(b1-3)GalNAc(b1-4)[Neu5Ac(a2-3)]Gal(b1-4)Glc
# Method in brief: as §1
# [3] = target: Neu5Ac(a2-3)Gal(b1-3)GalNAc6S
# Method in brief: as §1
# [4] = target: Neu5Ac(a2-3)Gal(b1-3)GlcNAc
# Method in brief: as §1
# [5] = target: Neu5Ac(a2-3)Gal(b1-3)GlcNAc(b1-2)Man(a1-3)[Neu5Ac(a2-3)Gal(b1-3)GlcNAc(b1-2)Man(a1-6)]Man(b1-4)GlcNAc(b1-4)GlcNAc
# Method in brief: as §1
# [6] = target: Neu5Ac(a2-3)Gal(b1-3)GlcNAc(b1-3)Gal(b1-3)GlcNAc
# Method in brief: as §1
# [7] = target: Neu5Ac(a2-3)Gal(b1-3)GlcNAc(b1-3)Gal(b1-4)GlcNAc
# Method in brief: as §1
# [8] = target: Neu5Ac(a2-3)Gal(b1-3)GlcNAc(b1-3)GalNAc
# Method in brief: as §1
# [9] = target: Neu5Ac(a2-3)Gal(b1-3)GlcNAc6S
# Method in brief: as §1
# [10] = target: Neu5Ac(a2-3)Gal(b1-3)[Fuc(a1-4)]GlcNAc
# Method in brief: as §1
# [11] = target: Neu5Ac(a2-3)Gal(b1-3)[Fuc(a1-4)]GlcNAc(b1-3)Gal(b1-3)[Fuc(a1-4)]GlcNAc
# Method in brief: as §1
# [12] = target: Neu5Ac(a2-3)Gal(b1-3)[Fuc(a1-4)]GlcNAc(b1-3)Gal(b1-4)[Fuc(a1-3)]GlcNAc
# Method in brief: as §1
# [13] = target: Neu5Ac(a2-3)Gal(b1-3)[Neu5Ac(a2-3)Gal(b1-4)]GlcNAc
# Method in brief: as §1
# [14] = target: Neu5Ac(a2-3)Gal(b1-3)[Neu5Ac(a2-6)]GalNAc
# Method in brief: as §1
# Neu5Ac(a2-3)Gal(b1-4)Glc = target: Neu5Ac(a2-3)Gal(b1-4)Glc
# Method in brief: as §1
# [15] = target: Neu5Ac(a2-3)Gal(b1-4)GlcNAc
# Method in brief: as §1
# [16] = target: Neu5Ac(a2-3)Gal(b1-4)GlcNAc(b1-2)Man(a1-3)[GlcNAc(b1-2)Man(b1-4)GlcNAc(b1-2)Man(a1-6)]Man(b1-4)GlcNAc(b1-4)GlcNAc
# Method in brief: as §1
# [17] = target: Neu5Ac(a2-3)Gal(b1-4)GlcNAc(b1-2)Man(a1-3)[Neu5Ac(a2-6)Gal(b1-4)GlcNAc(b1-2)Man(a1-6)]Man(b1-4)GlcNAc(b1-4)GlcNAc
# Method in brief: as §1
# [18] = target: Neu5Ac(a2-3)Gal(b1-4)GlcNAc(b1-3)Gal(b1-3)GlcNAc
# Method in brief: as §1
# [19] = target: Neu5Ac(a2-3)Gal(b1-4)GlcNAc(b1-3)Gal(b1-4)GlcNAc
# Method in brief: as §1
# [20] = target: Neu5Ac(a2-3)Gal(b1-4)GlcNAc(b1-3)Gal(b1-4)GlcNAc(b1-3)Gal(b1-4)GlcNAc
# Method in brief: as §1
# [21] = target: Neu5Ac(a2-3)Gal(b1-4)GlcNAc(b1-3)Gal(b1-4)[Fuc(a1-3)]GlcNAc
# Method in brief: as §1
# [22] = target: Neu5Ac(a2-3)Gal(b1-4)GlcNAc(b1-3)GalNAc
# Method in brief: as §1
# [23] = target: Neu5Ac(a2-3)Gal(b1-4)GlcNAc(b1-6)[Gal(b1-3)]GalNAc
# Method in brief: as §1
# [24] = target: Neu5Ac(a2-3)Gal(b1-4)GlcNAc(b1-6)[Neu5Ac(a2-3)Gal(b1-3)]GalNAc
# Method in brief: as §1
# [25] = target: Neu5Ac(a2-3)Gal(b1-4)GlcNAc6S
# Method in brief: as §1
# [26] = target: Neu5Ac(a2-3)Gal(b1-4)[Fuc(a1-3)]GlcNAc
# Method in brief: as §1
# [27] = target: Neu5Ac(a2-3)Gal(b1-4)[Fuc(a1-3)]GlcNAc(b1-3)Gal
# Method in brief: as §1
# [28] = target: Neu5Ac(a2-3)Gal(b1-4)[Fuc(a1-3)]GlcNAc(b1-3)Gal(b1-4)GlcNAc
# Method in brief: as §1
# [29] = target: Neu5Ac(a2-3)Gal(b1-4)[Fuc(a1-3)]GlcNAc(b1-3)Gal(b1-4)[Fuc(a1-3)]GlcNAc(b1-3)Gal(b1-4)[Fuc(a1-3)]GlcNAc
# Method in brief: as §1
# [30] = target: Neu5Ac(a2-3)Gal(b1-4)[Fuc(a1-3)]GlcNAc(b1-3)GalNAc
# Method in brief: as §1
# [31] = target: Neu5Ac(a2-3)Gal(b1-4)[Fuc(a1-3)]GlcNAc(b1-6)[Gal(b1-3)]GalNAc
# Method in brief: as §1
# [32] = target: Neu5Ac(a2-3)Gal(b1-4)[Fuc(a1-3)]GlcNAc(b1-6)[Neu5Ac(a2-3)Gal(b1-3)]GalNAc
# Method in brief: as §1
# [33] = target: Neu5Ac(a2-3)Gal(b1-4)[Fuc(a1-3)]GlcNAc6S
# Method in brief: as §1
# [34] = target: Neu5Ac(a2-3)Gal6S(b1-4)GlcNAc
# Method in brief: as §1
# [35] = target: Neu5Ac(a2-3)Gal6S(b1-4)[Fuc(a1-3)]GlcNAc
# Method in brief: as §1
# Neu5Ac(a2-3)GalNAc = target: Neu5Ac(a2-3)GalNAc
# Method in brief: as §1
# [36] = target: Neu5Ac(a2-3)GalNAc(b1-4)GlcNAc
# Method in brief: as §1
# [37] = target: Neu5Ac(a2-3)[GalNAc(b1-4)]Gal(b1-4)Glc
# Method in brief: as §1
# [38] = target: Neu5Ac(a2-3)[GalNAc(b1-4)]Gal(b1-4)GlcNAc
# Method in brief: as §1
# [39] = target: Neu5Ac(a2-3)[GalNAc(b1-4)]Gal(b1-4)GlcNAc(b1-3)GalNAc
# Method in brief: as §1
# [40] = target: Neu5Ac(a2-3)[Neu5Ac(a2-6)]GalNAc
# Method in brief: as §1
binder,measurement,setting,value
"Galatrox (Botrops atrox), P0DM53 (protein) NNCPQDWLPMNGLCYKIFDELKAWKDAEMFCRKYKPGCHLASIILYGESPEWAEGHSEVWLGLWDKKKDFSWEWTDR",glycan array binding signal (z-score),[1],-0.344
same,glycan array binding signal (z-score),[2],-0.325
same,glycan array binding signal (z-score),[3],-0.361
same,glycan array binding signal (z-score),[4],-0.362
same,glycan array binding signal (z-score),[5],-0.363
same,glycan array binding signal (z-score),[6],-0.367
same,glycan array binding signal (z-score),[7],-0.354
same,glycan array binding signal (z-score),[8],-0.366
same,glycan array binding signal (z-score),[9],-0.36
same,glycan array binding signal (z-score),[10],-0.374
same,glycan array binding signal (z-score),[11],-0.357
same,glycan array binding signal (z-score),[12],-0.332
same,glycan array binding signal (z-score),[13],-0.37
same,glycan array binding signal (z-score),[14],-0.264
same,glycan array binding signal (z-score),Neu5Ac(a2-3)Gal(b1-4)Glc,-0.371
same,glycan array binding signal (z-score),[15],-0.362
same,glycan array binding signal (z-score),[16],-0.353
same,glycan array binding signal (z-score),[17],-0.149
same,glycan array binding signal (z-score),[18],-0.366
same,glycan array binding signal (z-score),[19],-0.372
same,glycan array binding signal (z-score),[20],-0.366
same,glycan array binding signal (z-score),[21],-0.348
same,glycan array binding signal (z-score),[22],-0.37
same,glycan array binding signal (z-score),[23],-0.351
same,glycan array binding signal (z-score),[24],-0.37
same,glycan array binding signal (z-score),[25],-0.369
same,glycan array binding signal (z-score),[26],-0.375
same,glycan array binding signal (z-score),[27],-0.366
same,glycan array binding signal (z-score),[28],2.3
same,glycan array binding signal (z-score),[29],-0.361
same,glycan array binding signal (z-score),[30],-0.309
same,glycan array binding signal (z-score),[31],0.037
same,glycan array binding signal (z-score),[32],-0.332
same,glycan array binding signal (z-score),[33],-0.373
same,glycan array binding signal (z-score),[34],-0.366
same,glycan array binding signal (z-score),[35],-0.367
same,glycan array binding signal (z-score),Neu5Ac(a2-3)GalNAc,-0.364
same,glycan array binding signal (z-score),[36],-0.362
same,glycan array binding signal (z-score),[37],-0.364
same,glycan array binding signal (z-score),[38],-0.144
same,glycan array binding signal (z-score),[39],-0.358
same,glycan array binding signal (z-score),[40],-0.374
